{"source": "a collection of fitness landscapes (doi:10.1038/s41467-024-54723-y)", "note": "Over roughly 18,000 sequences, “TetR repression strength (sort-seq, GFP reporter)” has its median near 0.23; the highest 2% begin near 0.68. The list shows a part of the results."}
{"biological_target": "TetR (class B, Tn10) (UniProt P04483)", "sequence (P04483 whole entry)": "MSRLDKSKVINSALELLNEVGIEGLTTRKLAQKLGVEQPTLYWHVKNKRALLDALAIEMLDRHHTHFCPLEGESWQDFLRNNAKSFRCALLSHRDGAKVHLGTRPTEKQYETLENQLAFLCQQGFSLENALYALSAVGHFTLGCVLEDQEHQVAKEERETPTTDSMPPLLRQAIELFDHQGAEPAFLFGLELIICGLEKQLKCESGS", "experiment": "TetR repression strength (sort-seq, GFP reporter) (relative to tetO2 = 1); higher = stronger repression", "settings": "E. coli", "how_it_was_run": "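E. coli SIG10-MAX carried a low-copy plasmid library with eight randomized operator positions between a constitutive promoter and sfGFP, with TetR constitutively expressed. Cells grew 5 h at 37 °C in LB with 50 µg/mL chloramphenicol, then 10^6 cells were FACS-sorted into 13 fluorescence bins, each Illumina-sequenced. Repression strength is the top bin index plus one minus the read-weighted mean bin, divided by the wild-type operator value. Three independent transformations; variants with ≥30 reads in all replicates and CV ≤0.5 were averaged.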"}
{"sequence": "TCCCGTAGAGTCGCGGAGA", "TetR repression strength": 0.241}
{"sequence": "TCCCCGTAAGTGGAGGAGA", "TetR repression strength": 0.0301}
{"sequence": "TCCCTAAAAGTCTAAGAGA", "TetR repression strength": 0.29}
{"sequence": "TCCCATCTAGTAATGGAGA", "TetR repression strength": 0.439}
{"sequence": "TCCCACGTAGTTACGGAGA", "TetR repression strength": 0.305}
{"sequence": "TCCCATGGAGTATAGGAGA", "TetR repression strength": 0.309}
{"sequence": "TCCCGGGGAGTGTTGGAGA", "TetR repression strength": 0.415}
{"sequence": "TCCCTACGAGTATCAGAGA", "TetR repression strength": 0.311}
{"sequence": "TCCCGCTGAGTGGCTGAGA", "TetR repression strength": 0.167}
{"sequence": "TCCCGATGAGTGGGAGAGA", "TetR repression strength": 0.316}
{"sequence": "TCCCATTCAGTCCGCGAGA", "TetR repression strength": 0.259}
{"sequence": "TCCCGGTCAGTTTTGGAGA", "TetR repression strength": 0.169}
{"sequence": "TCCCAGGGAGTTACAGAGA", "TetR repression strength": 0.167}
{"sequence": "TCCCTTCGAGTGGCGGAGA", "TetR repression strength": 0.391}
{"sequence": "TCCCAGACAGTTATGGAGA", "TetR repression strength": 0.208}
{"sequence": "TCCCCTAGAGTAGCCGAGA", "TetR repression strength": 0.392}
{"sequence": "TCCCTGAGAGTCGTGGAGA", "TetR repression strength": 0.239}
{"sequence": "TCCCGGGAAGTACTAGAGA", "TetR repression strength": 0.161}
{"sequence": "TCCCCTTTAGTCGGGGAGA", "TetR repression strength": 0.151}
{"sequence": "TCCCGTGTAGTCCTGGAGA", "TetR repression strength": 0.187}
{"sequence": "TCCCGGCCAGTCCAGGAGA", "TetR repression strength": 0.219}
{"sequence": "TCCCATAAAGTCAGGGAGA", "TetR repression strength": 0.158}
{"sequence": "TCCCCACGAGTGTTTGAGA", "TetR repression strength": 0.514}
{"sequence": "TCCCTATTAGTGAGCGAGA", "TetR repression strength": 0.346}
{"sequence": "TCCCGCTGAGTGCAAGAGA", "TetR repression strength": 0.408}
{"sequence": "TCCCGGTTAGTTACGGAGA", "TetR repression strength": 0.211}
{"sequence": "TCCCCGGTAGTCCAGGAGA", "TetR repression strength": 0.393}
{"sequence": "TCCCATGGAGTGCCCGAGA", "TetR repression strength": 0.353}
{"sequence": "TCCCGGAAAGTTGTGGAGA", "TetR repression strength": 0.275}
{"sequence": "TCCCTGTAAGTTAACGAGA", "TetR repression strength": 0.194}
{"sequence": "TCCCTTTTAGTAGAGGAGA", "TetR repression strength": 0.173}
{"sequence": "TCCCACCAAGTGGGAGAGA", "TetR repression strength": 0.111}
{"sequence": "TCCCCTGGAGTCAGTGAGA", "TetR repression strength": 0.18}
{"sequence": "TCCCCGGTAGTGTTTGAGA", "TetR repression strength": 0.235}
{"sequence": "TCCCGGTCAGTTGGTGAGA", "TetR repression strength": 0.254}
{"sequence": "TCCCGTATAGTGGACGAGA", "TetR repression strength": 0.0457}
{"sequence": "TCCCGGGGAGTGTGCGAGA", "TetR repression strength": 0.126}
{"sequence": "TCCCATAGAGTAATGGAGA", "TetR repression strength": 0.303}
{"sequence": "TCCCCTCTAGTAGTGGAGA", "TetR repression strength": 0.129}
{"sequence": "TCCCGCAGAGTGGCGGAGA", "TetR repression strength": 0.117}
{"sequence": "TCCCGGGAAGTTAAAGAGA", "TetR repression strength": 0.0494}
{"sequence": "TCCCACCAAGTGGGTGAGA", "TetR repression strength": 0.139}
{"sequence": "TCCCGGTAAGTGGCGGAGA", "TetR repression strength": 0.184}
{"sequence": "TCCCTATAAGTGCATGAGA", "TetR repression strength": 0.588}
{"sequence": "TCCCCGTCAGTAGCCGAGA", "TetR repression strength": 0.303}
{"sequence": "TCCCGCAGAGTGGGAGAGA", "TetR repression strength": 0.131}
{"sequence": "TCCCATGGAGTGGCAGAGA", "TetR repression strength": 0.208}
{"sequence": "TCCCTGCCAGTGGATGAGA", "TetR repression strength": 0.336}
{"sequence": "TCCCAGACAGTCGGGGAGA", "TetR repression strength": 0.182}
{"sequence": "TCCCGTACAGTGTTGGAGA", "TetR repression strength": 0.427}
{"sequence": "TCCCGAATAGTCGAAGAGA", "TetR repression strength": 0.162}
{"sequence": "TCCCGTAGAGTTGGTGAGA", "TetR repression strength": 0.278}
{"sequence": "TCCCGTTGAGTCACGGAGA", "TetR repression strength": 0.106}
{"sequence": "TCCCGGAGAGTGGCCGAGA", "TetR repression strength": 0.209}
{"sequence": "TCCCGCACAGTTCCGGAGA", "TetR repression strength": 0.2}
{"sequence": "TCCCACTAAGTGGCAGAGA", "TetR repression strength": 0.24}
{"sequence": "TCCCACGAAGTTTTTGAGA", "TetR repression strength": 0.308}
{"sequence": "TCCCTATTAGTAAAAGAGA", "TetR repression strength": 0.518}
{"sequence": "TCCCTTGCAGTGCTGGAGA", "TetR repression strength": 0.322}
{"sequence": "TCCCCCGAAGTTGCCGAGA", "TetR repression strength": 0.549}
{"sequence": "TCCCGGGGAGTTGTTGAGA", "TetR repression strength": 0.251}
{"sequence": "TCCCGAGGAGTCAGCGAGA", "TetR repression strength": 0.138}
{"sequence": "TCCCCCACAGTGATGGAGA", "TetR repression strength": 0.12}
{"sequence": "TCCCATAAAGTTATTGAGA", "TetR repression strength": 0.618}
{"sequence": "TCCCCAGGAGTATCGGAGA", "TetR repression strength": 0}
{"sequence": "TCCCCGCGAGTTAGCGAGA", "TetR repression strength": 0.115}
{"sequence": "TCCCATAAAGTGACGGAGA", "TetR repression strength": 0.305}
{"sequence": "TCCCGTCCAGTCGCAGAGA", "TetR repression strength": 0.231}
{"sequence": "TCCCGCGTAGTCGAGGAGA", "TetR repression strength": 0.138}
{"sequence": "TCCCAAAGAGTTTTCGAGA", "TetR repression strength": 0.114}
{"sequence": "TCCCTGAGAGTGACCGAGA", "TetR repression strength": 0.26}
{"sequence": "TCCCTGCAAGTAAGGGAGA", "TetR repression strength": 0.183}
{"sequence": "TCCCTGTAAGTCTTAGAGA", "TetR repression strength": 0.193}
{"sequence": "TCCCGTCTAGTGTCTGAGA", "TetR repression strength": 0.399}
{"sequence": "TCCCGCATAGTGTGGGAGA", "TetR repression strength": 0.306}
{"sequence": "TCCCACGTAGTGGGCGAGA", "TetR repression strength": 0.162}
{"sequence": "TCCCTCGGAGTTCAAGAGA", "TetR repression strength": 0.334}
{"sequence": "TCCCAGGCAGTGAGCGAGA", "TetR repression strength": 0.0936}
{"sequence": "TCCCGTGAAGTGCGAGAGA", "TetR repression strength": 0.279}
{"sequence": "TCCCGAATAGTTTAAGAGA", "TetR repression strength": 0.298}
{"sequence": "TCCCGTGGAGTTGGCGAGA", "TetR repression strength": 0.111}
{"sequence": "TCCCAGTTAGTGGATGAGA", "TetR repression strength": 0.195}
{"sequence": "TCCCCGAGAGTGGTAGAGA", "TetR repression strength": 0.294}
{"sequence": "TCCCTAAAAGTGCTGGAGA", "TetR repression strength": 0.416}
{"sequence": "TCCCCGAGAGTATGTGAGA", "TetR repression strength": 0.199}
{"sequence": "TCCCATTTAGTGAGCGAGA", "TetR repression strength": 0.272}
{"sequence": "TCCCGTATAGTCTGGGAGA", "TetR repression strength": 0.198}
{"sequence": "TCCCACGGAGTGGGTGAGA", "TetR repression strength": 0.274}
{"sequence": "TCCCAGACAGTCAGAGAGA", "TetR repression strength": 0.168}
{"sequence": "TCCCGGTAAGTTGGCGAGA", "TetR repression strength": 0.178}
{"sequence": "TCCCGGTCAGTCGTAGAGA", "TetR repression strength": 0.38}
{"sequence": "TCCCTCGGAGTAGGGGAGA", "TetR repression strength": 0.0342}
{"sequence": "TCCCGCGTAGTCGAAGAGA", "TetR repression strength": 0.104}
{"sequence": "TCCCTGGTAGTACTGGAGA", "TetR repression strength": 0.0313}
{"sequence": "TCCCGCAGAGTGGTTGAGA", "TetR repression strength": 0.101}
{"sequence": "TCCCTGGGAGTTGTGGAGA", "TetR repression strength": 0.213}
{"sequence": "TCCCATCGAGTCTATGAGA", "TetR repression strength": 0.227}
{"sequence": "TCCCGATTAGTAGTTGAGA", "TetR repression strength": 0.199}
{"sequence": "TCCCTTAAAGTCAAGGAGA", "TetR repression strength": 0.416}
{"sequence": "TCCCGTTGAGTATATGAGA", "TetR repression strength": 0.229}
{"sequence": "TCCCGCGAAGTGTTAGAGA", "TetR repression strength": 0.141}
{"sequence": "TCCCCACGAGTTACAGAGA", "TetR repression strength": 0.435}
{"sequence": "TCCCTGTCAGTGGACGAGA", "TetR repression strength": 0.342}
{"sequence": "TCCCTACAAGTGTCAGAGA", "TetR repression strength": 0.21}
{"sequence": "TCCCTTAGAGTATGTGAGA", "TetR repression strength": 0.0743}
{"sequence": "TCCCGGCGAGTGAAAGAGA", "TetR repression strength": 0.31}
{"sequence": "TCCCGGCGAGTCCGGGAGA", "TetR repression strength": 0.271}
{"sequence": "TCCCGTGGAGTACGAGAGA", "TetR repression strength": 0.204}
{"sequence": "TCCCCAGGAGTGGTCGAGA", "TetR repression strength": 0.164}
{"sequence": "TCCCAGGCAGTATTCGAGA", "TetR repression strength": 0.115}
{"sequence": "TCCCGGCAAGTTTAGGAGA", "TetR repression strength": 0.463}
{"sequence": "TCCCCACAAGTCTTAGAGA", "TetR repression strength": 0.319}
{"sequence": "TCCCTGGCAGTGAGGGAGA", "TetR repression strength": 0.197}
{"sequence": "TCCCCTGGAGTGAAAGAGA", "TetR repression strength": 0.283}
{"sequence": "TCCCATCCAGTTCAAGAGA", "TetR repression strength": 0.457}
{"sequence": "TCCCGGAGAGTTGGTGAGA", "TetR repression strength": 0.095}
{"sequence": "TCCCCGAAAGTAGGTGAGA", "TetR repression strength": 0.104}
{"sequence": "TCCCAGTAAGTGGCAGAGA", "TetR repression strength": 0.206}
{"sequence": "TCCCCCGGAGTGTCGGAGA", "TetR repression strength": 0.139}
{"sequence": "TCCCAGATAGTGGGGGAGA", "TetR repression strength": 0.173}
{"sequence": "TCCCTCGTAGTGTCGGAGA", "TetR repression strength": 0.351}
{"sequence": "TCCCGGTTAGTGGTAGAGA", "TetR repression strength": 0.163}
{"sequence": "TCCCTGCGAGTATTTGAGA", "TetR repression strength": 0.391}
{"sequence": "TCCCGGCCAGTGCATGAGA", "TetR repression strength": 0.465}
{"sequence": "TCCCAGTAAGTAAAAGAGA", "TetR repression strength": 0.23}
{"sequence": "TCCCACCGAGTACGGGAGA", "TetR repression strength": 0.135}
{"sequence": "TCCCAGGAAGTGTGGGAGA", "TetR repression strength": 0.288}
{"sequence": "TCCCGATAAGTTGCGGAGA", "TetR repression strength": 0.185}
{"sequence": "TCCCATTGAGTAGGGGAGA", "TetR repression strength": 0.352}
{"sequence": "TCCCCCGAAGTGAGGGAGA", "TetR repression strength": 0.445}
